According to PubChem BioAssay AID493208 (National Center for Advancing Translational Sciences (NCATS), 2011):
Screen size: about 44,000 compounds; about 340 (0.77%) were called active. Not shown: some 5% with an inconclusive outcome. The call rests on the fitted dose curve; in most records, active means well fitted inhibition curve with a large enough effect; inconclusive means small, poorly fitted or top-dose-only effect; inactive means flat fitted curve, though single readings scatter. The list shows a part of the results.

Experiment: Acumen qHTS Assay for Inhibitors of the mTORC1 Signaling Pathway in MEF (Tsc2-/-, p53-/-) Cells: Sytravon;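 further: plate controls were DMSO for no effect and rapamycin for full effect; nearly all actives have a fitted effect of over 50% in size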
Conditions: phospho-rpS6 immunofluorescence/PI, 24 h; series mostly up to 38.3 µM; activity change, negative = inhibition: at the top concentration
Method in brief: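 Tsc2-/-, p53-/- MEFs (empty-vector stable line) in DMEM + 10% FBS were treated with compounds 24 h at 37 degree Celsius, fixed, and immunostained for phospho-rpS6 (Alexa-488) with propidium iodide counterstain. Laser-scanning cytometry gave % positive cells, normalized against 7.5 nM rapamycin and DMSO.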

Activity change, negative = inhibition, inactive:
Cc1ccc(C)c(CNC(=O)c2cc3ccccn3n2)c1 10.2%
COc1ccc(NC(=O)Cn2cc(S(=O)(=O)Cc3ccc(F)cc3)c3ccccc32)cc1OC -6.17%
CCOC(=O)C1CCC(CN(Cc2cccc(Br)c2)S(=O)(=O)c2ccc(Cl)cc2)CC1 (configuration not stated) 3.49%
CCOC(=O)N1CCc2c(sc3c2C(=O)NC(c2ccccc2F)N3)C1 (configuration not stated) -6.73%
COc1ccc(N2CC(NC(=O)COc3ccc4ccccc4c3)CC2=O)cc1OC (configuration not stated) -12.6%
CCN1C(=O)C(Cc2nc3ccccc3c(=O)n2-c2ccc(OC)cc2)c2ccccc21 (configuration not stated) 4.78%
CC1Cc2cc(S(=O)(=O)NCc3ccc(N(C)C)cc3)ccc2N1C(=O)C1CCC1 (configuration not stated) -2.39%
Cc1ccc(-n2c(=O)c3c4c(sc3n(CC(=O)Nc3ccccc3C)c2=O)CCCCC4)cc1C 2.03%
COc1ccccc1CNc1nccn(-c2ccccc2)c1=O -0.429%
CCN(CC)c1ccc(-c2nc(-c3ccco3)no2)cc1[N+](=O)[O-] 3.18%
CCC(C)NC(=O)c1sc2nc(C)c(C(=O)Nc3ccc(C)cc3C)c(-c3ccccc3Cl)c2c1N (configuration not stated) 13.5%
COc1ccc(NC(=O)c2cnc(N3CCCCC3)c3ccccc23)cc1Cl -6.34%
Cc1ccc(CCNC(=O)c2ccc3c(=O)n(-c4ccccc4)c(=O)[nH]c3c2)cc1 -11.9%
Cn1cc(S(=O)(=O)N2CCCCC2)cc1C(=O)Nc1cccc(C#N)c1 -4.49%
CCOC(=O)c1cccc2c1N[C@@H](c1ccc(F)cc1)[C@H]1CC=C[C@@H]21 -15.3%
Cc1ccc(CNC(=O)Cn2c(=O)n(Cc3ccc(F)cc3)c(=O)c3sc4ccccc4c32)cc1 -20.5%
O=C(Nc1ccc(Cl)cc1)N1CCC(c2ccccc2)C1 (configuration not stated) -5.46%
Cc1cc(-c2ccc(S(=O)(=O)Nc3ccc(Cl)cc3C)cc2)on1 -8.36%
COc1cccc(N2CC(NC(=O)/C=C\c3ccc(OC)c(OC)c3)CC2=O)c1 (configuration not stated) -0.767%
CCC(C)NC(=O)CN1C(=O)COc2ccc(S(=O)(=O)N3CCOCC3)cc21 (configuration not stated) -1.25%
Cc1cccc(Oc2ccc3c(c2)Oc2ccccc2NC3=O)c1 -15.1%
Cc1ccc(NC(=O)Cn2cc(S(=O)(=O)N3CCC(C)CC3)c3ccccc3c2=O)c(Br)c1 6.97%
COc1ccc(CNC(=O)c2cnn(-c3ccc(F)cc3)c2-n2cccc2)cc1 -3.85%
CCCCN(CCCNC(=O)c1c(C)oc2nc[nH]c(=O)c12)Cc1ccccc1 -4.35%
CNC(=O)c1c(NC(=O)c2ccc(S(=O)(=O)N3CCCCC3C)cc2)sc2c1CCC2 (configuration not stated) -4.88%
Cc1ccc(Nc2c(-c3cccnc3)nc3ccc(Br)cn23)cc1 -1.35%
COc1ccc(-c2nnc(SCC(=O)N(C)Cc3ccccc3)o2)cc1OC 1.59%
